# Measurements reported in paper PMC12136788.
# The list shows a part of the results.
# B1: ENSG00000107863:be:win_901|CDS|ENSG00000107863|bound_else_gene|NA|bound_elsewhere_windowed (ssRNA)
# RNA: GGGAGUUCUACAGUCCGACGAUCGUGAGGUAUGGCGUGAGUGAGCAGACCUCUUUAAAAACAGUGUCAAGAACCACAUCACCACCAUUAUCAAUUCCCACCACUCAUCUAAUUCAUCAGCCUGCAGGCUCCAGAUCACUGGAACAACAGAGGAUUGAGCAUCA
# B2: chr8:87872786:87873971:-|CDS|ENSG00000176566|control|control|control (ssRNA)
# RNA: GGGAGUUCUACAGUCCGACGAUCUUGUCUCAGCAGGUCCUGUUGACCAACGUGGUGACGGGACACCAGCAGUCAUUUGGGACUAGCAGUGAUGUCUUGGCCCAGCAGUUUGCAAUCAUGACUCCUUUGCUGUUUAAUGGCUGUCAACAGAGGAUUGAGCAUCA
# B3: chr14:96341565:96341677:-|CDS|ENSG00000066739|unk|FALSE|unique (ssRNA)
# RNA: GGGAGUUCUACAGUCCGACGAUCCUGGAACCCCAAAAUUAUUUAUGAGCCACACCCACAGCUAACUAGAAAUUUACCAGAGAUAGCACCUUCUGACCCAGUGCAGAUUGGACGGUUAAUUGGUAGGUUGGAGUUGAGUCUCACCAACAGAGGAUUGAGCAUCA
# B4: chr15:66548596:66548706:+|3pUTR|ENSG00000174442|unk|total|mutant (ssRNA)
# RNA: GGGAGUUCUACAGUCCGACGAUCCCGCAAGGGCUCUGAAAUGACAAAGAGAACGAGCACCACAAAUGAGAACAGGAUCAUUUCCGUAAAUACAGCUUUAUCCCAAAAGCUUUAACUGUAUUGGGAAAACUUAAAAAACCGCAUCAACAGAGGAUUGAGCAUCA
# B5: ENSG00000125968:stop:overlap|stop_codon|ENSG00000125968|stop_codon|NA|stop_codon (ssRNA)
# RNA: GGGAGUUCUACAGUCCGACGAUCGCACCCUCAACGGCGAGAUCAGCGCCCUGACGGCCGAGGUGAGAUCCAGAUCCGACCACUAGAUCAUCCUUAUACCGACGGGGAAACGGAGGCCAGAGAGGGCGUGGGCGCUUGCACCACCAACAGAGGAUUGAGCAUCA
# B6: chr4:140153917:140154018:-|5pUTR|ENSG00000196782|msi1|FALSE|bound_elsewhere (ssRNA)
# RNA: GGGAGUUCUACAGUCCGACGAUCUUUGCAGUCGCCUCGGACUGUCCAUGUGUUUACUUCCCCCAGCCCGAGGAUUCGAUAUCUAGGUUCCUGUGAAAUGCAACUGAGCAGCCAAAGUACUUUGAGAACACGGGGCGGCAUAAACAACAGAGGAUUGAGCAUCA
# B7: ENSG00000136451:be:win_3751|3pUTR|ENSG00000136451|bound_else_gene|NA|bound_elsewhere_windowed (ssRNA)
# RNA: GGGAGUUCUACAGUCCGACGAUCCUCCACAGUGGUCCAAGGAGCAGUCCUCAGUGGGGGCAGGUGUGGGCCCUACCCCUAAGCUAGAAUGUGGUUGUCAGAACCCUGAAAGUAUUAGUUCUAAAAAAAAAAAGAUAUAUACUACAACAGAGGAUUGAGCAUCA
# B8: chr15:78897113:78897311:+|3pUTR|ENSG00000185787|unk|FALSE|unique (ssRNA)
# RNA: GGGAGUUCUACAGUCCGACGAUCUAACAAUUGAUGUUUGUUUUCUGUUUGAUUUUAAACAGAGAAAAAAUAAAAGGGGGUAAUAGCUCCUUUUUUCUUCUUUCUUUUUUUUUUUCAUUUCAAAAUUGCUGCCAGUGUUUUCAACAACAGAGGAUUGAGCAUCA
# B9: chr13:113500007:113500108:+|CDS|ENSG00000150403|unk|total|mutant (ssRNA)
# RNA: GGGAGUUCUACAGUCCGACGAUCGAAGAGGCCAAUUCUAAGCAAAAUAUAACAAAACGAGAAGUGGAGGAUGACUUGGGUCUCCGCAUGCUGAUUGACUCCCAGAACAACCAGUAUAUUUUGACCAAGCCCAGAGAUUCAACCCAACAGAGGAUUGAGCAUCA
# B10: chr8:96333981:96334082:+|3pUTR|ENSG00000156471|msi1|total|mutant (ssRNA)
# RNA: GGGAGUUCUACAGUCCGACGAUCUUAAGUUCAGGCCACUUUUCUGUCUUUUAUUUGGUUACUGUUGUUAUUUGUUUUUAAGUCCGGAUGCUUUUUAACAGCCUUCCGAAGCCGCUGCUGAAAUUGAUACUGGGGGAAGGGUUCCAACAGAGGAUUGAGCAUCA
# B11: chr2:73730642:73730743:-|CDS|ENSG00000144034|unk|total|mutant (ssRNA)
# RNA: GGGAGUUCUACAGUCCGACGAUCUUCAGACGCCGGAAACAAUGGUUAAUGAUCUUGUGUUUUUUUUUUCAUUUUUUUUCUCUCCGAUUUCAGAGGCUUUGAAAAAAUUUGGUAUCUCAGCAAAUGACACUUCAAUUCUAAUUGCAACAGAGGAUUGAGCAUCA
# B12: chr1:93353930:93354034:+|CDS|ENSG00000117505|unk|total|mutant (ssRNA)
# RNA: GGGAGUUCUACAGUCCGACGAUCUUUGGGAUUUGGCUCUUACAUCAGUGAAGUAAAAGAAGUCUUGCAAGAGUGUAAAACAGCCGCAUUAAAAAGAAGAAAGGCCAGUUCUCGUUUGGAAAACCUUGGCAUUCCUGAAGAAGACAACAGAGGAUUGAGCAUCA
# B13: chr2:167954955:167954998:-|3pUTR|ENSG00000198648|msi1_unk|total|mutant (ssRNA)
# RNA: GGGAGUUCUACAGUCCGACGAUCGUUGUAUUCCGAAAUUAAUAUACUUAUAAAAUUAAGAUUUAUCCGCCAAACUUGAAUUCCCGUUUUAAAACUGACUGUGAAUUUUAUUUUUCAUAUAUUUAUGCAUUACACACCUCCGCUCAACAGAGGAUUGAGCAUCA
# B14: chr1:150647640:150647741:-|3pUTR|ENSG00000143457|unk|total|mutant (ssRNA)
# RNA: GGGAGUUCUACAGUCCGACGAUCAGAUUCAAUUACCUGGAUGUCAAAGUCCCCGAGCCAGAAAUAUAUUCUCUCAUCCCUCUCCGCAUUCUCUUGCUCCCUCAUUCACCCGGGCAAAUGUCUAAAUGAAGAAAAGUCUCUCUCCAACAGAGGAUUGAGCAUCA
# B15: chr5:103210461:103210562:+|3pUTR|ENSG00000145725|unk|FALSE|unique (ssRNA)
# RNA: GGGAGUUCUACAGUCCGACGAUCGAAUAAGGAGCUGGGAGAAAGGAGACCUGGGUAUUAAUCUCAGCUCUACCACUACAUGGUAGAGCUAUGUAGUGGUAGACUAUCUGGGAGACUCUAGAAUCUUUACCAUUCCCUCUACUACAACAGAGGAUUGAGCAUCA
# B16: ENSG00000136451:be:win_151|CDS|ENSG00000136451|bound_else_gene|NA|bound_elsewhere_windowed (ssRNA)
# RNA: GGGAGUUCUACAGUCCGACGAUCAAACCUCAGGGUGCACCAGAAACAUUAAAGGAUGCCAUUGGGAUUAAAAAAGAAAAACCCAAAACUUCAUUUGUGUGCACUUACUGCAGUAAAGCUUUCAGGGACAGCUAUCACCUGAGGCAACAGAGGAUUGAGCAUCA
# B17: ENSG00000044524:stop:overlap|stop_codon|ENSG00000044524|stop_codon|NA|stop_codon (ssRNA)
# RNA: GGGAGUUCUACAGUCCGACGAUCACAGCCGCAAGUUUGAGUUUGAAACUAGUCCAGACUGUAUGUAUUAUUUCAAUGCAGUCUAGAGGAGGGGGCAGGGAUCUUGCAAAAGAUGUCUGAUCGUUUAUUCUCACUGUUUCUAAGCAACAGAGGAUUGAGCAUCA
# B18: chr14:49622334:49622435:+|CDS|ENSG00000168282|unk|total|mutant (ssRNA)
# RNA: GGGAGUUCUACAGUCCGACGAUCCAAUACUUGACUGUAUCUUGUCUUCCAAAAUUCUGGAAAGUGCUGGUUCCUCAAAUUCCCCGGAUCUUUCAUGCUGGAGACUGUGGUAUGCAUCACAAGAAAACCUGCCGACCAUCCACUCAACAGAGGAUUGAGCAUCA
# B19: chrX:71240429:71240530:-|3pUTR|ENSG00000147130|msi1|total|mutant (ssRNA)
# RNA: GGGAGUUCUACAGUCCGACGAUCGGCUUUGGGUUUCCUGACCCAUCCCGCACCGGCCGAGCCUCUUGUUCCCCGGCAUGACCCCGGGAAAAACCCAGCUGCCUUCUCUGCCCUGUGCCCACUCCCUUCUCUACUCUUCCCCAGCAACAGAGGAUUGAGCAUCA
# B20: chr1:212100457:212100572:+|CDS|ENSG00000143476|unk|FALSE|unique (ssRNA)
# RNA: GGGAGUUCUACAGUCCGACGAUCAGAAGAGGCUCUGUCUCCUCCGUCUCUCCCAAGCCACCUUCAUCUUUCAAGAUGUCGAUUAGAAACUGGGUGACCCGAACACCUUCCUCAUCACCACCCAUCACUCCACCUGCUUCGGAGCAACAGAGGAUUGAGCAUCA
# B21: chr22:19969400:19969501:+|3pUTR|ENSG00000093010|msi1|total|mutant (ssRNA)
# RNA: GGGAGUUCUACAGUCCGACGAUCUCCCCACUGGGCCUUGCUUACAGAAGAGGCAAUGGCUCAGACCAGCUCCCGCAUCCCUGCCGUUGCCUCCCUGGCCCAUGAGUGAGGAUGCAGUGCUGGUUUCUGCCCACCUACACCCCGCAACAGAGGAUUGAGCAUCA
# B22: chr19:39539560:39539696:-|CDS|ENSG00000176396|unk|total|mutant (ssRNA)
# RNA: GGGAGUUCUACAGUCCGACGAUCCGGGAACGGAGGCCUGGCUGCGUUGCCCUAUCUCCGUCUCCGCCACCCACUCCGCGUUUCCGGCAUCAAUUACCAGCAGUUUCUCCGCCACUAUCUGGAAAAUUACCCGAUUGCUCCCGGCAACAGAGGAUUGAGCAUCA
# Biological target: MSI1 full-length (mouse, UniProt Q61474 1-362)
# UniProt Q61474, sequence (Q61474 whole entry): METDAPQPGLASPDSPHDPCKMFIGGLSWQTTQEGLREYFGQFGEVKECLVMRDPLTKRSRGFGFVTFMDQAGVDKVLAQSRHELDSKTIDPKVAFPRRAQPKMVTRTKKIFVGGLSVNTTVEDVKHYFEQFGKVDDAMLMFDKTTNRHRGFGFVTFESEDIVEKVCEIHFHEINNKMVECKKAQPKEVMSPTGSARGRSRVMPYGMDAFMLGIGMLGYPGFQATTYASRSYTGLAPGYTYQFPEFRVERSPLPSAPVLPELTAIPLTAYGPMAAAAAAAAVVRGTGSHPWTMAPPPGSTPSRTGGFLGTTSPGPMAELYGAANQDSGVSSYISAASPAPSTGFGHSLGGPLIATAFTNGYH
# Assay: nsRBNS (natural sequence RNA bind-n-seq); RBNS binding buffer (assumed for nsRBNS): 25 mM Tris pH 7.5, 150 mM KCl, 3 mM MgCl2, 0.01% Triton X-100, 500 ug/ml BSA, 20 U/ml SUPERase-In, 4 C; UNK is unkempt and MSI1 is Musashi-1; names of the RNAs are library labels; protein concentration not given here; high values mean tight binding
row,Binder,binding signal [enrichment R]
1,B1,0.563
2,B2,0.253
3,B3,5.06
4,B4,0.196
5,B5,0.504
6,B6,0.362
7,B7,1.89
8,B8,0.501
9,B9,0.507
10,B10,0.724
11,B11,0.259
12,B12,0.365
13,B13,3.64
14,B14,0.728
15,B15,0.914
16,B16,0.372
17,B17,1.31
18,B18,0.329
19,B19,0.722
20,B20,0.509
21,B21,0.313
22,B22,0.469
